Measured values reported in PubChem BioAssay AID1240 (Sanford-Burnham Center for Chemical Genomics, 2008).
In all, about 50,000 compounds went through this assay and about 800 (1.6%) showed an effect of 50% or more. Some of the results follow.

These compounds were tested against Bcl-2-like protein 10 (Homo sapiens) (UniProt Q9HD36) (assay: Phenotype converters, Bcl-B/TR3 peptide binding displacement, primary biochemical FP (AID 1240;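 further: 0% = Bcl-B with tracer peptide and DMSO and 100% = tracer peptide lacking Bcl-B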)). Conditions: GST-Bcl-B / FITC-TR3 peptide fluorescence polarization; stronger effect = higher value; compound at 3.75 mg/L.
Sequence of UniProt Q9HD36 (Q9HD36 whole entry, looked up): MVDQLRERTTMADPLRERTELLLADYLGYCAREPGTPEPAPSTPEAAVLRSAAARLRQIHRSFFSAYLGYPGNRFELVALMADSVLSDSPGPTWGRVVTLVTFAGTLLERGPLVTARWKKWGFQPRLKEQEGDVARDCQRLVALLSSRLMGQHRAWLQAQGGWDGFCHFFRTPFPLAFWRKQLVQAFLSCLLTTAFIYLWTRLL

| SMILES | displacement |
| --- | --- |
| Cc1ccccc1CC1S/C(=N/N=C/c2ccccc2F)NC1=O (stereo unspecified) | -14.3% |
| Cc1cccc(N2CCN(C(=O)CCCOc3ccc(Cl)cc3Cl)CC2)c1C | 1.1% |
| CC(O)Cn1c2ccc(Cl)cc2c2cc(Cl)ccc21 (stereo unspecified) | -6% |
| Nc1nnc(SCc2ccc(Cl)c(Cl)c2)s1 | 7.3% |
| CCN(CC)c1nc(C)cc(COC)c1C#N | -1.4% |
| CC(=O)c1cccc(NC(=O)C2CCCCC2)c1 | -2.5% |
| CCOc1ccccc1C(=O)Nc1sc(C)c(C)c1C#N | 24% |
| O=C(CCCOc1ccccc1)Nc1ccc2c(c1)OCCO2 | -7.5% |
| O=C(Nc1ccc(Cl)cc1Cl)C1CCCO1 (stereo unspecified) | -11.4% |
| CCOC(=O)c1c(NC(C)=O)sc2c1CCC2 | 7.1% |
| CC(C)OC(=O)c1c(-c2ccccc2)csc1N | -1.9% |
| CCCOc1ccc(C(=O)Nc2ncc(Cc3ccccc3Cl)s2)cc1 | -1.7% |
| COc1ccc(C2Nc3ccccc3C(=O)N2Cc2ccco2)cc1CN1C(=O)c2ccccc2C1=O (stereo unspecified) | -4.5% |
| O=C1S/C(=C/c2ccc(-c3cccc([N+](=O)[O-])c3)o2)C(=O)N1c1ccccc1 | 111% |
| CCOc1ccc(Nc2nc(-c3c(C)nc4sccn34)cs2)cc1 | -20.2% |
| O=C(N/N=C/c1ccc(Cl)cc1Cl)c1cc(O)cc(O)c1 | -2.8% |
| CCOC(=O)c1c(NC(=O)c2ccc(OC)c(OC)c2)sc(C(=O)N(CC)CC)c1C | 0.6% |
| CCOC(=O)c1c(CC(C)C)csc1NC(=O)c1ccccc1C(=O)O | 1.1% |
| CCOC(=O)C1=C(O)/C(=C/c2ccco2)SC1=Nc1ccc([N+](=O)[O-])cc1 | 2.6% |
| O=C(c1ccccc1F)N1CCN(c2cc(N3CCOCC3)c(F)cc2[N+](=O)[O-])CC1 | -8.1% |
| CN1C(=O)NC(=O)/C(=C/c2ccc(-c3cccc(Cl)c3)o2)C1=O | 81.5% |
| O=C1CCCC2=C1C(c1ccccc1Cl)Nc1ccc(C(=O)c3ccccc3)cc1N2 (stereo unspecified) | 17.6% |
| O=C(/C=C/c1cccs1)OCCNC(=O)c1cccnc1 | -7.3% |
| COc1ccc(CN2CCN(Cc3ccccn3)CC2)cc1Br | -5.1% |

| SMILES | displacement |
| --- | --- |
| COC(=O)C1=C(O)/C(=C\c2cccc(Br)c2)N=C1C | 12.7% |
| COc1ccc(C(=O)Nc2ncc([N+](=O)[O-])s2)cc1OC | 15% |
| Cc1ccc(/C=C/C(=O)Nc2ccc3c(c2)OCO3)cc1 | 10.7% |
| O=C(c1cc2n(n1)C(C(F)(F)F)CC(c1ccco1)N2)N1CCCc2ccccc21 (stereo unspecified) | 1.1% |
| O=C(NCc1cccnc1)c1cc2nc(-c3ccc(Cl)cc3)cc(C(F)(F)F)n2n1 | 11.9% |
| Cc1ccc(OCCCN2CCOCC2)c(C(C)(C)C)c1 | 3.9% |
| Cc1ccc(-c2cc3nc(-c4ccccc4)cc(C)n3n2)cc1 | -11.6% |
| O=C(Nc1ccc2c(c1)OCO2)c1nn2c(c1Cl)NC(c1ccc(Br)cc1)CC2C(F)(F)F (stereo unspecified) | -0.7% |
| Cc1cc2c(cc1C)NC(c1cc(Br)ccc1F)C1=C(CC(C)(C)CC1=O)N2 (stereo unspecified) | -3% |
| Oc1ccc(Cc2nc3ccccc3[nH]2)cc1 | 2.4% |
| O=C(Nc1ccccc1CO)c1ccc(F)cc1 | 5.2% |
| CCCOc1ccc(-c2ccc(-c3nc(-c4cccnc4)no3)cc2)cc1 | -7% |
| CC(C)CNC(=O)c1cc(-c2cccs2)nc2ccccc12 | -4.7% |
| CC(C)c1ccc(C(=O)NC2CC2)cc1 | -2.5% |
| CC(C)(C)OC(=O)NNC(=O)c1ccc(Cl)cc1 | -2% |
| O=Cc1ccc(-c2ccc(C(=O)O)cc2)o1 | 10.5% |
| CCC(=O)CC(O)(c1ccccc1)C(F)(F)F (stereo unspecified) | 13.2% |
| O=C(Cc1ccccc1[N+](=O)[O-])NCc1ccncc1 | -7.9% |
| Cc1ccc(OCC(=O)Nc2sc3c(c2C#N)CCCC3)cc1 | -2.3% |
| O=C(c1ccccc1)C(Sc1ccc(Br)cc1)C(=O)c1ccccc1 | 11.6% |
| Cc1cccc(N2C(=O)NC(=O)/C(=C/c3cccc4ccccc34)C2=O)c1 | -9.5% |
| Cc1cc(C)cc(-n2c(C)cc(/C=N/NC(=O)c3ccncc3)c2C)c1 | -23.1% |
| CCOC(=O)C(NC(=O)c1ccccc1)=C1CCCCC1 | 12.4% |
| CCOc1cc(/C=N/n2cnnc2)cc(Cl)c1OCCOc1cc(C)ccc1C(C)C | -2.6% |

| SMILES | displacement |
| --- | --- |
| COc1cc(/C=C2/SC(=S)N(CCC(=O)Nc3ccc(C(C)=O)cc3)C2=O)cc(OC)c1OC | 12.2% |
| O=C1c2ccccc2C(=O)N1CC(O)COC1CCCCC1 (stereo unspecified) | -5.1% |
| Cc1cc(C2C3=C(CC(C)(C)CC3=O)N=C3c4ccccc4C(=O)C32)cc(C)c1O (stereo unspecified) | -2.1% |
| COc1ccc(C(=O)c2ccc(OC)cc2)cc1 | 1.8% |
| CC1=C(C)CC2C(=O)N(c3cccc4ccccc34)C(=O)C2C1 (stereo unspecified) | 3% |
| COc1ccc(C)cc1NC(=O)COc1ccc(Cl)cc1Cl | -2.8% |
| CCOC(=O)C1=C(C)N=C2SCC(=O)N2C1c1ccc(Br)cc1 (stereo unspecified) | -10.8% |
| COc1ccc(C(=O)Nc2c(C)ccc3nsnc23)cc1OC | 1.8% |
| O=C(N/N=C/c1cccnc1)c1sc2ccccc2c1Cl | 4.5% |
| Cc1ccc(/C=C2\SC(=O)N(CCC(=O)Nc3ccccc3)C2=O)cc1 | 3.8% |
| Nc1nonc1-c1nc2ccccc2n1Cc1ccccc1Cl | 9.9% |
| Cc1cccc(Nc2cc(=O)[nH]c(=O)[nH]2)c1 | 8.6% |
| Cc1cc(C)cc(NC(=O)C(=O)NCc2ccco2)c1 | 11.7% |
| CC1(C)CC(=O)C2=C(C1)N(Cc1ccccc1)C1=C(C(=O)CC(C)(C)C1)C2c1cccs1 | -11.1% |
| C=CCc1ccccc1OCCn1cc(/C=C2/SC(=S)NC2=O)c2ccccc21 | 5.8% |
| CCOc1ccc(NC2=C(Cl)C(=O)N(c3ccc(C)cc3C)C2=O)cc1 | 2.1% |
| CC1CCOC(c2cccc([N+](=O)[O-])c2)O1 (stereo unspecified) | 4.1% |
| Cc1cccc(NC(=O)C2CN(S(=O)(=O)c3ccccc3)CCN2S(=O)(=O)c2ccccc2)c1 (stereo unspecified) | 0.8% |
| Cc1ccc(S(=O)(=O)N2CCN(C(=O)c3ccccc3)C2)cc1[N+](=O)[O-] | 5.8% |
| CC(C)C(=O)NC(=O)NCc1cccc([N+](=O)[O-])c1 | 9.7% |
| CC1(C)CC(C)(c2ccc([N+](=O)[O-])cc2)c2cc([N+](=O)[O-])ccc21 (stereo unspecified) | 3.9% |
| O=C(O)c1cc(NC(=O)c2ccc3c(c2)C(=O)N(N2C(=O)c4ccccc4C2=O)C3=O)cc(C(=O)O)c1 | -0.9% |
| COc1ccc(NC(=O)C(c2ccccc2)c2ccccc2)c([N+](=O)[O-])c1 | 14.6% |
